In the RNAGym collection of RNA variant scans (doi:10.1093/nar/gkz1192) one finds self-cleavage data, which are given here for 34 variants.

Read counts are not given, so values of variants with three or more changes are uncertain.

B1: CPEB3 Ribozyme (parent)
chain: UAACAGGGGGCCACAGCAGAAGCGUUCACGUCGCAGCCCCUGUCAGAUUCUGGUGAAUCUGCGAAUUCUGCUGUAUAUCUC

Variants of B1 are the subject of the data set. The data set is described as follows: self-cleavage, relative activity (ratio to wild type); higher = more cleavage; in vitro, sequencing. The gist of the method:
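After error-prone PCR and barcoding, CPEB3 ribozyme mutant libraries were transcribed with T7 RNA polymerase at 37°C for 5 hours, then given 15 min with DNase I before an EDTA stop, and they cleaved during both steps. Reverse transcription with template switching preceded Illumina sequencing. Relative activity divides a variant's cleaved/total read fraction by the unmutated ribozyme's. At least 5 reads were required per variant, and three batches were averaged.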
As to UAACAGGGGGCCACAGCAGAAGCGUUCACCUCGCAGCCCCUGUCAGAUUCUGGUGAUUCUGCGAAUUCUGCUGUAUACCUC [G30C A57U U78C], the self-cleavage came out at 0.07. UAACAGGGGGCCACAGCAGAAGCGUUCACGACGCAGCCCCUGUCAGAUUCUGGUGUAUAUGCGAACUCUGCUGUAUAUCUC [U31A A56U C59A U66C]: the self-cleavage turned out to be 0.08. Next, UAACAGGGGGCCACAGCAGAAGCGUUCACUUCGCAGCCCCUGUCAGAUUCUGGCGAAUCUGCGAAUUCUACUGUACAUCUC [G30U U54C G70A U76C]: 0.06; UAACAGGGGGCCACAGCAGAAGCGUUCACGACUCAGCCCCUGUCAGAUUCUGGCGAAUCUGCGAAUUCUGCUGUAUAUCUC [U31A G33U U54C]: 0.17. Next, UAACAGGGGGCCACAGCAGAAGCGUUCACGACGGAGCCCCUGUUAGAUUCUGGUGAAUCUGCGAAUUCCGCUGUAUAUCUC [U31A C34G C44U U69C]: 0.26; UAACAGGGGGCCACAGCAGAAGCGUUCACAUCGCAGCCCCUGUCAGAUUCUGGUGAAUCUGCGAAUUCUGCGGUAUGUCUC [G30A U72G A77G]: 0.17. In the case of UAACAGGGGGCCACAGCAGAAGCGUUCACCUCGCAACCCCUGUCAGAAUCUGGUGAAUCUGCGAAUUCUGCUGUAUAUCUC [G30C G36A U48A], the self-cleavage was 0.07. With UAACAGGGGGCCACAGCAGAAGCGUUCACGACGCCGCCCCUGACAGAUUCUGGCGAAUCUGCGAAUUCCGCUGUAUAUCUC [U31A A35C U43A U54C U69C], the self-cleavage stood at 0.21. On to UAACAGGGGGCCACAGCAGAAGCGUUCACGACGCAGCCCCCGUCAGGUUCUGGUGAAUCUGCGAAUUCUGCUGUAUAUCUC [U31A U41C A47G], for which the self-cleavage was 0.24. Next, UAACAGGGGGCCACAGCAGAAGCGUUCACGACGCAGCCCCUGUCAGAUUUUGGUGAAUCUGCGAGUUCUGCUGUAUAUCUC [U31A C50U A65G]: 0.16; UAACAGGGGGCCACAGCAGAAGCGUUCACAUCGCAGCCCCUGUCAGAUUCUGGUGAAUCUGCGUAUUCUGCUGUAUAUCAC [G30A A64U U80A]: 0.31; UAACAGGGGGCCACAGCAGAAGCGUUCACGAUGCAGCCCCUGUCAGAUUCCGGUGAAUCUGCGAAUUCUGCUGUAUAUCUC [U31A C32U U51C]: 0.22. Consider UAACAGGGGGCCACAGCAGAAGCGUUCACGACGCAGCCCCUGUCAGGUUCUGGGGAAUCUGCGAAUUCAGCCGUAUUUCUC [U31A A47G U54G U69A U72C A77U], for which the self-cleavage was determined as 0.14. With UAACAGGGGGCCACAGCAGAAGCGUUCACGACGCAGCCCCUGUCAGAUUCUGGUGGAUCUGCGAACUCUGCUGUAUAUCUC [U31A A56G U66C], the self-cleavage worked out at 0.26. As for UAACAGGGGGCCACAGCAGAAGCGUUCACGACGCAGCCCUUGUCAGUUUCUGGUGAAUCUGCGAAUUCUGCUUUAUAUCUC [U31A C40U A47U G73U], the figure is 0.67. On to UAACAGGGGGCCACAGCAGAAGCGUUCACGACGCAGCCCCUGUCAGAUUCUGGUGGAUCUGCGAAUUCUGGUGUAUAUCUC [U31A A56G C71G], for which the self-cleavage was 0.09.

Consider UAACAGGGGGCCACAGCAGAAGCGUUCACGACGCAGCACCUGUCAGAUUCUGGUGAAUCUGCGAAUUCGGCUGUAUAUCUC [U31A C38A U69G], for which the self-cleavage is 0.09. As for UAACAGGGGGCCACAGCAGAAGCGUUCACGACACAGCCCCUGUCAGAAUCUGGUGAAUCUGCGAAUUCUGCUGUAUAUCUC [U31A G33A U48A], the figure is 0.07. As for UAACAGGGGGCCACAGCAGAAGCGUUCACACCGCAGCCCCCGUCAGAUACUGGUGAAUCUGCGAAUUCUGCUGUAUAUCUC [G30A U31C U41C U49A], the self-cleavage was determined as 0.08. Next, UAACAGGGGGCCACAGCAGAAGCGUUCACGACGCAGCCCCUGUCAGAUUCUGGUGAAUCUGCGGGUUCUGCUGCAUAUCUC [U31A A64G A65G U74C]: 0.13. As for UAACAGGGGGCCACAGCAGAAGCGUUCACGACGCAGCCCCUGUCAGAUUCUGGUGAAUCUGCGGAUUAUGCUGAAUAUCUC [U31A A64G C68A U74A], the figure is 0.12; as for UAACAGGGGGCCACAGCAGAAGCGUUCACGACGCGGCCCCUGUCAGAUUCUGGUGAAUCUGCGAAUUCUGCUGCAUAUCUC [U31A A35G U74C], 1.28; as for UAACAGGGGGCCACAGCAGAAGCGUUCACGACACAGCCCCCGUCAGAUCCUGGUGAAUCUGCGAAUACUGCUGUAUAUCUC [U31A G33A U41C U49C U67A], 0.08. With UAACAGGGGGCCACAGCAGAAGCGUUCACGACGCGGCCCCUCUCAGAUACUGGUGAAUCUGCGAAUUCUGCUGUAUAUCUC [U31A A35G G42C U49A], the self-cleavage was determined as 0.08. In the case of UAACAGGGGGCCACAGCAGAAGCGUUCACUCCGCAGCCCCUGUCGGAUUCUGGUGAAUCUGCGAAUUCUGCUGUAUAUCUC [G30U U31C A45G], the self-cleavage was 0.13.

For UAACAGGGGGCCACAGCAGAAGCGUUCACAUCGCAGCCCCUGUCAGAUUCUGGAGAAUCUGCGGAAUCUGCUGUAUAUCUC [G30A U54A A64G U66A], the self-cleavage is 0.14. Regarding UAACAGGGGGCCACAGCAGAAGCGUUCACGACGCUGCCCCUGCCAGAUUCUGGUGAAUCUGCGAAUUCUGCUGUAUAUCAC [U31A A35U U43C U80A], the self-cleavage stood at 0.1. For UAACAGGGGGCCACAGCAGAAGCGUUCACCGCGCAGCCCCUGUCAGUUUCUGGUGAAUCUGCGAAUUCUGCUGUAUAUCUC [G30C U31G A47U], the self-cleavage is 0.08. On to UAACAGGGGGCCACAGCAGAAGCGUUCACGACGCAGCCCCAGUCGGACUCUGGUGUAUCUGCGAAUUCUGCUGUAUAUCUC [U31A U41A A45G U48C A56U], for which the self-cleavage stood at 0.14. As for UAACAGGGGGCCACAGCAGAAGCGUUCACGACGCAGCCCCUGUCAGAUUCUGGUGAAUCUGCGUAUUCAGCUGUAUAUCUC [U31A A64U U69A], the self-cleavage is 0.17.

Regarding UAACAGGGGGCCACAGCAGAAGCGUUCACCUCGCAACCCCCGUCAGAUUCUGGUGAAUCCGCGGAUUCUGCUGUAUAUCUC [G30C G36A U41C U60C A64G], the self-cleavage is 0.14. As to UAACAGGGGGCCACAGCAGAAGCGUUCACUUCGCAGCCCCCGUCAGAUUCUGGUGAAUCUGCGAAUUCUGCCGUAUAUCUC [G30U U41C U72C], the self-cleavage was determined as 0.1. With UAACAGGGGGCCACAGCAGAAGCGUUCACUUCGCAGCCCCUGUCAGAUUCUGGUGAAUCUGCCAAUUCUGCUGUAAAUCCC [G30U G63C U76A U80C], the self-cleavage came out at 0.11.

Turning to UAACAGGGGGCCACAGCAGAAGCGUUCACGACGCAGCCCCAGUCAGAUUCUGGCGAAUCUGCGAAUUCUGCCGUAUAUCUC [U31A U41A U54C U72C], the self-cleavage was determined as 0.13.
